Article PMC4336329 (PLoS ONE, 2015)
Among all 310,000 compounds or so, about 14,000 (4.5%) showed an effect of 50% or more. Effects have a minus sign here. The list shows a part of the results.

target: human ether-à-go-go-related gene (hERG) potassium channel (human, UniProt Q12809); test: primary screen, population patch clamp on CHO cells stably expressing hERG
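Further: peak tail current of the secondary pulse compared with the same well before compound.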

human ether-à-go-go-related gene (hERG) potassium channel, sequence (Q12809 whole entry, looked up): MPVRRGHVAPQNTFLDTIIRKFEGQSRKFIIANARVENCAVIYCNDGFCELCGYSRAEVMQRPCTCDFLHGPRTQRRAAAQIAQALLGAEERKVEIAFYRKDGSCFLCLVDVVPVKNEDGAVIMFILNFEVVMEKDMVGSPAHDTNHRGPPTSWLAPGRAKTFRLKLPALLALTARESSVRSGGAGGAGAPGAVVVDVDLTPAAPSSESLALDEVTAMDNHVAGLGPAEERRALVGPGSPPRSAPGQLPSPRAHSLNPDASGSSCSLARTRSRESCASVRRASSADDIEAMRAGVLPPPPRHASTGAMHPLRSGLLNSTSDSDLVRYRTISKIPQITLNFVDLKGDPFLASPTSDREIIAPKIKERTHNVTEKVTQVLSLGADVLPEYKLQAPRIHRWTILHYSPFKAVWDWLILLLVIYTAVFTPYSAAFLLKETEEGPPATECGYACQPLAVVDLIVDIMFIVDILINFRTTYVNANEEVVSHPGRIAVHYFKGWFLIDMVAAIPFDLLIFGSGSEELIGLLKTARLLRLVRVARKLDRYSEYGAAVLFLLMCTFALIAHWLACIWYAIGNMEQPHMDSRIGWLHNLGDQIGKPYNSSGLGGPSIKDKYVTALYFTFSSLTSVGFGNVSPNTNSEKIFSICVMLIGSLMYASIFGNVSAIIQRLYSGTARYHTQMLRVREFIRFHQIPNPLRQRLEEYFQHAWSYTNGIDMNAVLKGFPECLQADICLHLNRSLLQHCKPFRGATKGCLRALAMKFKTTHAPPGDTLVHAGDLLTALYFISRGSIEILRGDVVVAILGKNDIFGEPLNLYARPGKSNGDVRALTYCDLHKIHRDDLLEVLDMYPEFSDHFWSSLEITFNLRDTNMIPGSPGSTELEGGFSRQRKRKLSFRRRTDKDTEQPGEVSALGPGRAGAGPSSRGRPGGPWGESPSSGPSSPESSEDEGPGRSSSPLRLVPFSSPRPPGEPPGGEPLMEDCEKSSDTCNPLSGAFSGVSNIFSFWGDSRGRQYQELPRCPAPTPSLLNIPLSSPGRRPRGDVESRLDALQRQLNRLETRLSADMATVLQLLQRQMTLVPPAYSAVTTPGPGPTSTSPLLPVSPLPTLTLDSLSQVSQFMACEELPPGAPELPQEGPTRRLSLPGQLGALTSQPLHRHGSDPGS

Row | SMILES | hERG current change (%, negative = inhibition) at 10uM [%]
1 | CC(C)C(OC(=O)c1oc2ccccc2c1CSC1CCCCC1)C(=O)NC(N)=O (stereo not shown) | 21.2
2 | CCc1nnc(NC(=O)c2cc(C)oc2C)s1 | -10
3 | COCCN(Cc1ccccc1)C(=O)c1cccc(S(=O)(=O)N2CCN(c3ccccc3)CC2)c1 | -52.8
4 | CCOC(=O)Cc1nnc(NC(=O)c2cccc(OCC)c2)s1 | 6.22
5 | O=C(O)CCS(=O)(=O)c1cc(Br)cc2c1N(C(=O)C1CC1)CC2 | 9.39
6 | Cc1oc(-c2cccc3ccccc23)nc1CN1CCC[C@H]1CO | -12.2
7 | COc1ccc(S(=O)(=O)Cc2ccc(C(=O)N3CCN(c4ccccc4F)CC3)o2)cc1 | -52.8
8 | CC(C)c1ccc(OCC(=O)NN2C(=O)c3ccccc3C2=O)c(Br)c1 | 8.95
9 | CN1CCN(c2ccc(C(CC(N)=O)NC(=O)Cc3ccc(Br)cc3)cc2[N+](=O)[O-])CC1 (stereo not shown) | 3.08
10 | Cc1c2cnn(CC(=O)NC3CCCC3)c(=O)c2c(C)n1Cc1ccccc1 | 11.7
11 | CCOc1ccc(S(=O)(=O)NC(Cc2cnc[nH]2)C(=O)O)cc1 (stereo not shown) | 18.5
12 | CCOc1ccc(S(=O)(=O)Nc2ccccc2SC)cc1 | -19.4
13 | O=C(Cc1c(O)c2ccccc2oc1=O)c1ccc(F)cc1 | 6.47
14 | Cc1ccc(-c2noc(-c3ccno3)n2)cc1 | 9.19
15 | COC(=O)c1nc[nH]c1C(=O)OC | 14.3
16 | Cc1ccc(NC(=O)Cn2c(=O)n(Cc3ccco3)c(=N)c3c4c(sc32)COC(C)(C)C4)cc1 | -7.76
17 | CCOC(=O)/C(C#N)=C/c1cc2ccccc2nc1N1CCOCC1 | -13.6
18 | COc1ccc([C@H]2CC(=O)C=C(c3ccc(-c4ccccc4)c(F)c3)C2)cc1 | 15.7
19 | CCN(CC)CCN/N=C(\C)c1c(O)[nH]c(=O)[nH]c1=O | 13.9
20 | CCOc1ccc(Br)cc1C(=S)N1CCCC1 | 9.29

Row | SMILES | hERG current change (%, negative = inhibition) at 10uM [%]
21 | CCCCNC(=S)Nc1ccc(F)cc1 | 20.6
22 | O=C(CN(C(=O)CCC(=O)Nc1nccs1)c1cccc(F)c1)NCc1ccc(F)cc1 | -7.31
23 | COC(=O)/C(C#N)=C\c1c(OC)[nH]c2ccccc12 | 14
24 | O=C(N/N=C/c1ccc(N2CCOCC2)cc1)c1ccccn1 | 7.37
25 | CCC1(C)SC(NC(C)=O)=NN1C(C)=O (stereo not shown) | 20.6
26 | CC(C)n1cc(/C=N/Nc2ccc(C(=O)O)cc2)c2ccccc21 | 1.07
27 | CCc1ccc(Nc2n[n+](C)c(-c3ccncc3)s2)cc1.[Cl-] | -29.7
28 | Cc1ccc(NC2CCCN(C(=O)c3cccc4nccnc34)C2)cc1C (stereo not shown) | 23
29 | CCCCOC(=O)c1nc(Cl)c(Cl)c(N)c1Cl | -0.0656
30 | COc1ccc(NC(=S)Nc2ncccc2C)c(OC)c1 | 8.22
31 | O/N=C1\CCCc2ccc3ccccc3c21 | 10.8
32 | CC1CCc2sc3nc(NCc4ccco4)n4ncnc4c3c2C1 (stereo not shown) | -3.05
33 | CCCCNc1nc(CC(C)=O)ns1 | 0.309
34 | COc1ccc(CCNC(=O)CSc2nnc3ccc(-c4cccnc4)nn23)cc1 | -33.5
35 | Cc1cc(C(=O)COc2cccc([N+](=O)[O-])c2)c(C)n1C1CC1 | -35.7
36 | Cc1cc(C)cc(OCC(=O)OCC(=O)c2c(N)n(C)c(=O)n(C)c2=O)c1 | -5.06
37 | CCc1ccc(NC(=O)CC2C(=O)Nc3c2c(=O)n(C)c(=O)n3C)cc1 (stereo not shown) | -4.1
38 | COCCN=C1Sc2nc3ccc(C)cc3cc2CN1Cc1ccco1 | -61
39 | Cc1ccc(N2C(=O)CC(Sc3ccccc3C(=O)O)C2=O)c([N+](=O)[O-])c1 (stereo not shown) | 16.2
40 | CC(C)c1cccc(C(C)C)c1NC(=O)COC(=O)C1CCC1 | 14.4

Row | SMILES | hERG current change (%, negative = inhibition) at 10uM [%]
41 | CCCCCCC(C)n1[nH]c(=O)cc1N (stereo not shown) | 3.7
42 | O=C(COc1ccc2c3c(c(=O)oc2c1)CCC3)NCC(O)c1ccccc1 (stereo not shown) | 11.5
43 | Cc1cc(C)nc(OC(C(=O)O)C(OCCc2ccccc2)(c2ccc(F)cc2)c2ccc(F)cc2)n1 (stereo not shown) | 11.3
44 | O=C(Nc1cccc(Cl)c1)OCc1ccccn1 | 1.34
45 | CC(C)n1c(=S)[nH]c2ccccc2c1=O | 0.0442
46 | O=C(NNS(=O)(=O)c1ccc(Cl)cc1)C1CCN(Cc2ccccc2)CC1 | -15.5
47 | COc1ccc(NC(=O)CCCn2c(=O)[nH]c3ccccc3c2=O)cc1 | 1.73
48 | Cc1ccc(-c2cccc(NC(=O)C3C4C=CC(C4)C3C(=O)O)c2)o1 (stereo not shown) | -33.1
49 | CN(Cc1nccn1C)C(=O)CC1C(=O)NCCN1Cc1cccc(Oc2ccccc2)c1 (stereo not shown) | -2.23
50 | Cc1cc(C)nc(N(C#N)CN2C(=O)c3ccccc3S2(=O)=O)n1 | 0.542
51 | O=Cc1cn(Cc2c(F)cccc2Cl)nc1-c1ccccc1 | 0.413
52 | Cc1ccc(CONS(=O)(=O)c2cc(C)ccc2C)cc1 | 15.5
53 | O=C(CN1C2CCC1CC(O)(c1cccnc1)C2)Nc1ccc2c(c1)OCO2 (stereo not shown) | -53.1
54 | CN(C)Cc1ccccc1C1(O)c2ccccc2CSc2ccccc21.Cl (stereo not shown) | 9.09
55 | COc1ccc(Cl)cc1NC(=O)CCN1C(=O)C2C3CCC(C3)C2C1=O (stereo not shown) | -6.36
56 | CC1CCCC(NC(=O)COC(=O)c2cc(S(=O)(=O)N3CCCCC3)ccc2N2CCOCC2)C1C (stereo not shown) | -31.8
57 | Cc1ccc(C2CCN(C(=S)Nc3cccc(C)c3)C2)cc1 (stereo not shown) | 1.21
58 | COC(c1ccccc1)c1nnc(CCC(=O)NCCc2ccc(Cl)cc2)o1 (stereo not shown) | -8.74
